Experimental findings from PMC12820563 are described below.

The list shows a part of the results. The list includes weakly bound sequences.

The target of this experiment is T1, MBP-FoxP3dN (UniProt Q99JB6).
T1 sequence: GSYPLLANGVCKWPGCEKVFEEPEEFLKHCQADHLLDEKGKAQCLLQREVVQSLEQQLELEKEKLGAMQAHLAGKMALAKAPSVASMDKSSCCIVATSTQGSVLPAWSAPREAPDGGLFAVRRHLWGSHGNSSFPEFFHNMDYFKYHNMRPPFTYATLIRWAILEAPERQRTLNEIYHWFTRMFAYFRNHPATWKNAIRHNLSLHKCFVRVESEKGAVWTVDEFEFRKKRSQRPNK
Briefly: PD-seq (MBP pull-down with sequencing). The conditions noted are these: 20 mM Tris-HCl pH 7.5, 100 mM NaCl, 1.5 mM MgCl2, 0.4 uM protein, 0.1 uM dsDNA library, 30 min, room temperature, amylose pull-down; high values mean tight binding; double strand, one strand shown.
For the sequence “GATGATTGTTCTCCCAGCTGATGAATTTAGAGGCTCGAGTAAACAAATTTTCCTAATCTTTCTGTTCAAGCGCCATCTAC”, the binding signal (RPM ratio (pull-down/input)) was 0.583.

As to “GATGATTGTTCTCCCAGCTGATGAATTAATTATCTCGAGTAAACAAATTTTCCTAATCTTTCTGTTCAAGCGCCATCTAC”, the binding signal (RPM ratio (pull-down/input)) is 1.7.

In the case of “GATGATTGTTCTCCCAGCTGATGAATTTTCATGCTCGAGTAAACAAATTTTCCTAATCTTTCTGTTCAAGCGCCATCTAC”, the binding signal (RPM ratio (pull-down/input)) came out at 0.372.

With “GATGATTGTTCTCCCAGCTGATGAATTTCAACCGTCGAGTAAACAAATTTTCCTAATCTTTCTGTTCAAGCGCCATCTAC”, the binding signal (RPM ratio (pull-down/input)) was 0.243.

As for “GATGATTGTTCTCCCAGCTGATGAATTTTCCCGATCGAGTAAACAAATTTTCCTAATCTTTCTGTTCAAGCGCCATCTAC”, the binding signal (RPM ratio (pull-down/input)) stood at 0.167.

For “GATGATTGTTCTCCCAGCTGATGAATTACCGAGGTCGAGTAAACAAATTTTCCTAATCTTTCTGTTCAAGCGCCATCTAC”, the binding signal (RPM ratio (pull-down/input)) is 0.257.

In the case of “GATGATTGTTCTCCCAGCTGATGAATTTCGGATGTCGAGTAAACAAATTTTCCTAATCTTTCTGTTCAAGCGCCATCTAC”, the binding signal (RPM ratio (pull-down/input)) was found to be 0.407.

With “GATGATTGTTCTCCCAGCTGATGAATTTATGACCTCGAGTAAACAAATTTTCCTAATCTTTCTGTTCAAGCGCCATCTAC”, the binding signal (RPM ratio (pull-down/input)) was 0.888.

As to “GATGATTGTTCTCCCAGCTGATGAATTTCAAGAATCGAGTAAACAAATTTTCCTAATCTTTCTGTTCAAGCGCCATCTAC”, the binding signal (RPM ratio (pull-down/input)) worked out at 0.178.

As to “GATGATTGTTCTCCCAGCTGATGAATTGAGCCAATCGAGTAAACAAATTTTCCTAATCTTTCTGTTCAAGCGCCATCTAC”, the binding signal (RPM ratio (pull-down/input)) came out at 0.527.

Consider “GATGATTGTTCTCCCAGCTGATGAATTTGAACTGTCGAGTAAACAAATTTTCCTAATCTTTCTGTTCAAGCGCCATCTAC”, for which the binding signal (RPM ratio (pull-down/input)) amounted to 0.368.

Take “GATGATTGTTCTCCCAGCTGATGAATTACCGATCTCGAGTAAACAAATTTTCCTAATCTTTCTGTTCAAGCGCCATCTAC”: the binding signal (RPM ratio (pull-down/input)) was found to be 0.354.

With “GATGATTGTTCTCCCAGCTGATGAATTATAAGTATCGAGTAAACAAATTTTCCTAATCTTTCTGTTCAAGCGCCATCTAC”, the binding signal (RPM ratio (pull-down/input)) amounted to 0.637.

Take “GATGATTGTTCTCCCAGCTGATGAATTCATATTGTCGAGTAAACAAATTTTCCTAATCTTTCTGTTCAAGCGCCATCTAC”: the binding signal (RPM ratio (pull-down/input)) was 1.06.

Regarding “GATGATTGTTCTCCCAGCTGATGAATTCCGCTTTTCGAGTAAACAAATTTTCCTAATCTTTCTGTTCAAGCGCCATCTAC”, the binding signal (RPM ratio (pull-down/input)) was determined as 3.18.

Consider “GATGATTGTTCTCCCAGCTGATGAATTACACGCGTCGAGTAAACAAATTTTCCTAATCTTTCTGTTCAAGCGCCATCTAC”, for which the binding signal (RPM ratio (pull-down/input)) worked out at 0.847.

Take “GATGATTGTTCTCCCAGCTGATGAATTGCAGCGCTCGAGTAAACAAATTTTCCTAATCTTTCTGTTCAAGCGCCATCTAC”: the binding signal (RPM ratio (pull-down/input)) is 0.649.

Consider “GATGATTGTTCTCCCAGCTGATGAATTCTGTCAGTCGAGTAAACAAATTTTCCTAATCTTTCTGTTCAAGCGCCATCTAC”, for which the binding signal (RPM ratio (pull-down/input)) is 0.9.

For “GATGATTGTTCTCCCAGCTGATGAATTTTTCCTGTCGAGTAAACAAATTTTCCTAATCTTTCTGTTCAAGCGCCATCTAC”, the binding signal (RPM ratio (pull-down/input)) came out at 0.176.

Turning to “GATGATTGTTCTCCCAGCTGATGAATTTATCCGCTCGAGTAAACAAATTTTCCTAATCTTTCTGTTCAAGCGCCATCTAC”, the binding signal (RPM ratio (pull-down/input)) amounted to 0.431.

With “GATGATTGTTCTCCCAGCTGATGAATTTTGGCTATCGAGTAAACAAATTTTCCTAATCTTTCTGTTCAAGCGCCATCTAC”, the binding signal (RPM ratio (pull-down/input)) was 0.739.

For the sequence “GATGATTGTTCTCCCAGCTGATGAATTAACGTCTTCGAGTAAACAAATTTTCCTAATCTTTCTGTTCAAGCGCCATCTAC”, the binding signal (RPM ratio (pull-down/input)) stood at 0.489.

Turning to “GATGATTGTTCTCCCAGCTGATGAATTAACACGTTCGAGTAAACAAATTTTCCTAATCTTTCTGTTCAAGCGCCATCTAC”, the binding signal (RPM ratio (pull-down/input)) came to 0.46.

Turning to “GATGATTGTTCTCCCAGCTGATGAATTAGCGCGCTCGAGTAAACAAATTTTCCTAATCTTTCTGTTCAAGCGCCATCTAC”, the binding signal (RPM ratio (pull-down/input)) was determined as 0.591.

Turning to “GATGATTGTTCTCCCAGCTGATGAATTGAGAACATCGAGTAAACAAATTTTCCTAATCTTTCTGTTCAAGCGCCATCTAC”, the binding signal (RPM ratio (pull-down/input)) was determined as 0.365.

For the sequence “GATGATTGTTCTCCCAGCTGATGAATTGTGCGACTCGAGTAAACAAATTTTCCTAATCTTTCTGTTCAAGCGCCATCTAC”, the binding signal (RPM ratio (pull-down/input)) turned out to be 3.56.

As to “GATGATTGTTCTCCCAGCTGATGAATTTTCTTAATCGAGTAAACAAATTTTCCTAATCTTTCTGTTCAAGCGCCATCTAC”, the binding signal (RPM ratio (pull-down/input)) was determined as 0.19.

For “GATGATTGTTCTCCCAGCTGATGAATTACTAGGCTCGAGTAAACAAATTTTCCTAATCTTTCTGTTCAAGCGCCATCTAC”, the binding signal (RPM ratio (pull-down/input)) is 0.319.

As to “GATGATTGTTCTCCCAGCTGATGAATTTCTCGTTTCGAGTAAACAAATTTTCCTAATCTTTCTGTTCAAGCGCCATCTAC”, the binding signal (RPM ratio (pull-down/input)) was 0.318.

Regarding “GATGATTGTTCTCCCAGCTGATGAATTACACCATTCGAGTAAACAAATTTTCCTAATCTTTCTGTTCAAGCGCCATCTAC”, the binding signal (RPM ratio (pull-down/input)) came out at 0.724.

Consider “GATGATTGTTCTCCCAGCTGATGAATTATTTGGGTCGAGTAAACAAATTTTCCTAATCTTTCTGTTCAAGCGCCATCTAC”, for which the binding signal (RPM ratio (pull-down/input)) was 0.971.

For “GATGATTGTTCTCCCAGCTGATGAATTGCGATCCTCGAGTAAACAAATTTTCCTAATCTTTCTGTTCAAGCGCCATCTAC”, the binding signal (RPM ratio (pull-down/input)) was 0.843.
